Assay results taken from the supplement of paper PMC3334620.
The full ranking holds about 33,000 sequences; the median of “E-score (-0.5 to 0.5)” is about -0.035, and the highest 2% start at about 0.34. This is one part of the list.

Target: T1, Mot3 (UniProt P54785)
T1 sequence: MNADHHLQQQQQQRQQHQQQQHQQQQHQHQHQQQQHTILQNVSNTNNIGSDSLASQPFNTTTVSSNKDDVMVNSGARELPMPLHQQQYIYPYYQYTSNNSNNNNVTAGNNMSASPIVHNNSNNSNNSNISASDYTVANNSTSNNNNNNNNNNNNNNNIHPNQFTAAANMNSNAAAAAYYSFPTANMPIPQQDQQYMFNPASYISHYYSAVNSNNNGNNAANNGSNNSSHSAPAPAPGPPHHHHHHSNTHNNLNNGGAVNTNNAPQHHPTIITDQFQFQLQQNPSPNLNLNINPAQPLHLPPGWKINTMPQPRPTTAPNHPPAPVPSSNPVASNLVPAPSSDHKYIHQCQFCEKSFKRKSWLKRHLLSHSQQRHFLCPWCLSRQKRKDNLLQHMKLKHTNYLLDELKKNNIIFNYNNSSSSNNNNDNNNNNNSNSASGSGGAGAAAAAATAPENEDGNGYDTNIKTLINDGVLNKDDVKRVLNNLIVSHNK
Test: PBM E-score (8-mer binding enrichment) (E-score (-0.5 to 0.5)); higher = stronger / more preferred TF binding; most listed sequences are background and not binding sites
Details: protein concentration: 200 nM; construct: GST-full length
In short: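 Bound GST-tagged yeast transcription factors, applied at about 100-200 nM to double-stranded universal all-10-mer Agilent arrays, were detected with fluorescent anti-GST. Scans were normalised with masliner. A modified Wilcoxon-Mann-Whitney statistic, the E-score, was assigned to each ungapped eight-base word pooled with its reverse complement by the Universal PBM Analysis Suite.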

Row | Sequence | PBM E-score
1 | GACAACTA | 0.0523
2 | AAGCATAA | -0.00346
3 | ACTCCGGC | -0.151
4 | GATGCTAA | -0.122
5 | AGACATAC | 0.157
6 | AGAGGCAT | -0.0714
7 | CCAGCAAC | 0.0114
8 | CGGATTTA | -0.0766
9 | CCGGTCCG | -0.411
10 | CCCGTCTC | -0.276
11 | TCCGAGGA | -0.211
12 | ATGAGATA | 0.0104
13 | GGACTTAC | 0.0386
14 | AGCTAGAC | -0.275
15 | ACCAGCAA | -0.127
16 | CTACCCTC | -0.254
17 | ACGAGCCT | 0.21
18 | GCCCTCGA | -0.14
19 | CGTAGGCC | -0.0263
20 | AGCGTATC | -0.103
21 | GATTGGCA | -0.253
22 | GTCATGTA | 0.356
23 | GCGATCAA | -0.0482
24 | TCAATCCA | -0.0625
25 | GCACCCAA | -0.21

Row | Sequence | PBM E-score
26 | CTAAGCAG | -0.107
27 | ATGGGTTG | 0.00733
28 | AGTCCTAG | -0.164
29 | CCTCCGTA | -0.112
30 | GAGTATGC | 0.0591
31 | CTACTTAA | 0.0699
32 | CATTCAAG | -0.222
33 | AAGGACCG | -0.0164
34 | AGCGTCTC | -0.207
35 | CAGCGTAG | -0.0256
36 | CATGTCGG | 0.222
37 | GGCTCACA | -0.00891
38 | GACACGTA | 0.26
39 | CCTCCTGA | -0.0543
40 | CTCCGGTC | -0.193
41 | GAATGGCC | -0.243
42 | CAGTCGTC | -0.255
43 | CATCGAGC | -0.193
44 | CCGGGCAG | -0.279
45 | CAGCCGCG | -0.0863
46 | ATACAGTA | 0.196
47 | CGTGGTAC | 0.0792
48 | TCCATACA | 0.0064
49 | AAAAATGG | 0.127
50 | ACTTGACC | -0.0482

Row | Sequence | PBM E-score
51 | ACCGTGAC | -0.017
52 | CTATAGCA | 0.119
53 | AGGAGAGC | -0.154
54 | AAGCGTTG | 0.0319
55 | AGAAGACA | 0.0253
56 | CGGAGCCC | -0.284
57 | TATTTCCA | 0.02
58 | CTTGTCCA | -0.0526
59 | CAACAATC | 0.215
60 | ACCTAGAT | 0.0985
61 | CGTCCGTA | -0.13
62 | CCAATACC | -0.0608
63 | GCACCGGA | -0.0824
64 | CGAGTGGA | -0.289
65 | CTGTTTTA | 0.0859
66 | CAACATGC | 0.345
67 | AAAAGGTC | -0.161
68 | TAGGCCGA | -0.356
69 | CTTATTTA | 0.116
70 | TGAGAGAA | -0.0743
71 | AGACGGTC | -0.169
72 | CACGTACG | 0.0433
73 | GTCACAGA | -0.0442
74 | ATAGCGAA | 0.113
75 | CCCTCTAA | -0.134

Row | Sequence | PBM E-score
76 | CAACTCGC | 0.00205
77 | CAATAACG | 0.0921
78 | CCGTAGAC | -0.134
79 | ACCTTCCT | 0.0149
80 | AACCCCTC | -0.159
81 | CGCTCGGA | -0.133
82 | CAGTTATA | 0.0381
83 | TAGTACCA | -0.0882
84 | TCTGTGAA | 0.0158
85 | CCCGATAA | -0.0141
86 | CCAAGTGG | -0.079
87 | GTATTGCA | 0.0602
88 | TATATTCA | 0.0956
89 | AGATTCAC | 0.0263
90 | AACCAGCC | -0.0888
91 | CGGCGCGC | -0.183
92 | ATCCAAAC | -0.0446
93 | AGTTCCAC | -0.0307
94 | TATATGGA | -0.0383
95 | TACGCTAA | 0.153
96 | ACGTGTTC | 0.221
97 | CATCAGCG | -0.0175
98 | CAAAAAAA | 0.154
99 | AATTTCAG | 0.0442
100 | AATAACCG | -0.0969

Row | Sequence | PBM E-score
101 | ATTTACAA | 0.363
102 | TCCGTCAA | -0.051
103 | ATAACTTG | 0.168
104 | AAAACTTA | 0.144
105 | AGCCAAGG | -0.106
106 | CCTTGCCC | 0.119
107 | CAGGAACA | 0.449
108 | CTAGACAA | 0.101
109 | CTAGTCGC | -0.071
110 | AGGGGGGC | -0.307
111 | GACGTGAA | 0.0472
112 | AACTAGCC | -0.112
113 | GAAGCGGC | -0.369
114 | ACAGCAAG | -0.0169
115 | ACGGCCCC | -0.406
116 | AATCCTTC | -0.105
117 | CACACCAC | -0.0852
118 | TACGTTCA | 0.103
119 | CAACGTGA | -0.065
120 | ATGATGCG | -0.0292
121 | CCCGAGTC | -0.234
122 | CCGCGCCG | -0.15
123 | ATTGATCG | 0.0333
124 | ATGGCAGA | -0.0408
125 | AAACTGCG | -0.13

Row | Sequence | PBM E-score
126 | ATGCGCGG | -0.232
127 | GTTTGTTA | 0.222
128 | TGTTGTAA | 0.307
129 | AGACTAGA | -0.245
130 | TACATATA | 0.317
131 | TCACAGGA | 0.15
132 | CCATCTTC | -0.218
133 | GCGGAACC | -0.106
134 | ACGCTACA | 0.0843
135 | GGTCCGAA | 0.0123
136 | ACACCAAC | -0.0101
137 | CGCCCGAC | -0.159
138 | AAATGGTT | 0.0419
139 | AATATAAC | 0.119
140 | ATGGGCCA | 0.00822
141 | CAGTCCAA | -0.132
142 | ACACGAGA | 0.263
143 | ATGAAGTC | -0.161
144 | TAAGCATA | 0.0176
145 | AATCCACG | -0.1
146 | GTAGGATA | 0.185
147 | ACGAGAAG | 0.0683
148 | CTAGTACC | 0.057
149 | TCACCGAA | -0.0409
150 | AATTAGCA | 0.11

Row | Sequence | PBM E-score
151 | CTACTCGA | 0.0146
152 | AAAAAAGA | 0.0433
153 | ACGTGATA | 0.201
154 | TACTACAA | 0.208
155 | AAGTGTTA | 0.208
156 | ACCGAAAG | 0.0688
157 | AGACAGCA | -0.129
158 | CATACTCG | -0.0935
159 | AATAAACC | -0.0482
160 | TCGCCAGA | -0.257
161 | ATTAACGC | 0.306
162 | ACATAAAC | 0.16
163 | AGCGGACA | -0.23
164 | GAGCGTCA | -0.142
165 | CGGTATGA | 0.0158
166 | GAGCGAAC | -0.154
167 | AGCCGAGC | -0.106
168 | CATGCGTC | -0.0423
169 | ATATCTCG | -0.176
170 | GTGTGCTA | 0.0828
171 | ATAACACC | 0.178
172 | AAGAGTCA | 0.0483
